PubChem BioAssay AID1745853 (National Center for Advancing Translational Sciences (NCATS), 2022)
Where “and” joins values, the source holds several entries; their conditions need not be identical. Equal entries are not always repeated. The list shows a part of the results. Further columns of the screen follow, without active or inactive calls.

Experiments:
Assay in all cases: Primary Screen for Target Class Profiling of Small Molecule Inhibitors of Methyltransferases
[1] = target: Glycine N-methyltransferase (Homo sapiens) (UniProt Q14749); conditions: purified enzyme, MTase-Glo SAH luminescence; measured here: GNMT inhibition; at 40 µM; stronger effect = lower value
How it was run: (§1)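 Each enzyme was reacted with SAM and its substrate, with compounds tested once at 40 uM; SAH formed was read by MTase-Glo luminescence.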

[2] = target: Guanidinoacetate N-methyltransferase (Homo sapiens) (UniProt Q14353); conditions: purified enzyme, MTase-Glo SAH luminescence; measured here: GAMT inhibition; at 40 µM; stronger effect = lower value
How it was run: as §1

[3] = target: Histamine N-methyltransferase (Homo sapiens) (UniProt P50135); conditions: purified enzyme, MTase-Glo SAH luminescence; measured here: HNMT inhibition; at 40 µM; stronger effect = lower value
How it was run: as §1

[4] = target: Nicotinamide N-methyltransferase (Homo sapiens) (UniProt P40261); conditions: purified enzyme, MTase-Glo SAH luminescence; measured here: NNMT inhibition; at 40 µM; stronger effect = lower value
How it was run: as §1

[5] = target: Phenylethanolamine N-methyltransferase (Homo sapiens) (UniProt P11086); conditions: purified enzyme, MTase-Glo SAH luminescence; measured here: PNMT inhibition; at 40 µM; stronger effect = lower value
How it was run: as §1
On the % scale 0 is the no-effect control and ±100 the full control effect.

CCC(C)NC(=O)CN1CN(c2ccccc2)C2(CCN(C(=O)Nc3ccccc3C)CC2)C1=O (stereo not given)
activity change, negative = inhibition [1]: -5.81%
activity change, negative = inhibition [2]: -6.26%
activity change, negative = inhibition [3]: -2.46%
activity change, negative = inhibition [4]: -14.4%
activity change, negative = inhibition [5]: -7.47%

CCc1ccc(C2c3cccn3-c3sc4c(c3CN2C(=O)Nc2ccc(OC)cc2OC)CCCC4)cc1 (stereo not given)
activity change, negative = inhibition [1]: 0.337%
activity change, negative = inhibition [2]: 0.431%
activity change, negative = inhibition [3]: 4.37%
activity change, negative = inhibition [4]: 8.47%
activity change, negative = inhibition [5]: 9.21%

COC(=O)C(Cc1c[nH]c2ccccc12)NC(=O)c1ccc(Br)cc1 (stereo not given)
activity change, negative = inhibition [1]: 1.88%
activity change, negative = inhibition [2]: 2.66%
activity change, negative = inhibition [3]: -2.85%
activity change, negative = inhibition [4]: 1.59%
activity change, negative = inhibition [5]: -0.539%

O=C(c1ccco1)N1CCC2(CCN(CCCn3cccn3)CC2)C(CO)C1 (stereo not given)
activity change, negative = inhibition [1]: 4.38%
activity change, negative = inhibition [2]: -6.45%
activity change, negative = inhibition [3]: -2.26%
activity change, negative = inhibition [4]: -10.4%
activity change, negative = inhibition [5]: -5.93%

COc1ccc(NC(=O)C[C@@H]2C[C@@H](C(C)C)[C@H](CC#N)C=C2C)cn1
activity change, negative = inhibition [1]: -8.73%
activity change, negative = inhibition [2]: -6.33%
activity change, negative = inhibition [3]: -5.25%
activity change, negative = inhibition [4]: -25.2%
activity change, negative = inhibition [5]: -10.5%

Cn1c(=O)c2ccc(C(=O)NC3CCCC3)cc2n2c(=O)n(CC(=O)Nc3cc(F)ccc3F)nc12
activity change, negative = inhibition [1]: 3.94%
activity change, negative = inhibition [2]: 0%
activity change, negative = inhibition [3]: 2.5%
activity change, negative = inhibition [4]: -0.252%
activity change, negative = inhibition [5]: 0.018%

Cc1cc(C)c(S(=O)(=O)NCCc2n[nH]c(Cc3ccccc3)n2)cc1C
activity change, negative = inhibition [1]: 14.7%
activity change, negative = inhibition [2]: 0%
activity change, negative = inhibition [3]: 12.3%
activity change, negative = inhibition [4]: 0.547%
activity change, negative = inhibition [5]: 5.38%

COc1ccccc1CNC(=O)C1(C)Cn2cnc(C(=O)NCc3cccnc3)c2C(=O)N1C1CC1 (stereo not given)
activity change, negative = inhibition [1]: -3.4%
activity change, negative = inhibition [2]: 2.72%
activity change, negative = inhibition [3]: -0.226%
activity change, negative = inhibition [4]: -2.17%
activity change, negative = inhibition [5]: -3.69%

C=C[C@H]1[C@H](O[C@@H]2O[C@H](CO)[C@@H](O)[C@H](O)[C@H]2O)OC=C(C(=O)OC)[C@H]1CC(=O)O
activity change, negative = inhibition [1]: -2.97%
activity change, negative = inhibition [2]: -11.8%
activity change, negative = inhibition [3]: 5.13%
activity change, negative = inhibition [4]: -23%
activity change, negative = inhibition [5]: -5.66%

Cc1ccc(N2C(=O)c3cc(-c4ccco4)nn3CC2(C)C(=O)NC2CCCCC2)c(C)c1 (stereo not given)
activity change, negative = inhibition [1]: -6.07%
activity change, negative = inhibition [2]: -8.33%
activity change, negative = inhibition [3]: 6.08%
activity change, negative = inhibition [4]: -5.7%
activity change, negative = inhibition [5]: -2.69%

C=C1C(=O)O[C@H]2C1[C@H](OC(=O)/C(=C/CO)COC(=O)/C(C)=C/CO)CC(=C)[C@@H]1CC(=O)[C@@H](C)[C@@H]12 (stereo not given in full)
activity change, negative = inhibition [1]: -13.5%
activity change, negative = inhibition [2]: -27.8%
activity change, negative = inhibition [3]: 4.51%
activity change, negative = inhibition [4]: -38.8%
activity change, negative = inhibition [5]: -9.9%

Cc1ccccc1CN1C(=O)c2cc3occc3n2CC1(C)C(=O)NC1CCCCC1 (stereo not given)
activity change, negative = inhibition [1]: -2.24%
activity change, negative = inhibition [2]: 4.14%
activity change, negative = inhibition [3]: 2.11%
activity change, negative = inhibition [4]: 5.64%
activity change, negative = inhibition [5]: -1.69%

CN1C(=O)c2cc(C(=O)NCCc3ccccc3)nn2CC1(C)C(=O)NC1CCCCC1 (stereo not given)
activity change, negative = inhibition [1]: 1.41%
activity change, negative = inhibition [2]: 4.14%
activity change, negative = inhibition [3]: 0.769%
activity change, negative = inhibition [4]: 1.79%
activity change, negative = inhibition [5]: 2.94%

O=C(CCn1ccc2cc(S(=O)(=O)N3CCCCC3)ccc21)NCc1ccccn1
activity change, negative = inhibition [1]: -2.9%
activity change, negative = inhibition [2]: -2.66%
activity change, negative = inhibition [3]: 1.17%
activity change, negative = inhibition [4]: -4.72%
activity change, negative = inhibition [5]: -1.99%

O=C(CCc1nnc2n(Cc3ccccc3)c(=O)c3ccccc3n12)N1CCC(Cc2ccccc2)CC1
activity change, negative = inhibition [1]: -4.81%
activity change, negative = inhibition [2]: 1.3%
activity change, negative = inhibition [3]: -2.09%
activity change, negative = inhibition [4]: -4.17%
activity change, negative = inhibition [5]: -4.04%

O=C(OC(C(F)(F)F)C(F)(F)F)N1CCN(Cc2cccc(Oc3ccccc3)c2)CC1
activity change, negative = inhibition [1]: -0.343%
activity change, negative = inhibition [2]: -11.1%
activity change, negative = inhibition [3]: 7.38%
activity change, negative = inhibition [4]: -17.3%
activity change, negative = inhibition [5]: -5.77%

COC(C(=O)Nc1ccnn1C1CCN(C(=O)CO)CC1)c1ccccc1 (stereo not given)
activity change, negative = inhibition [1]: -1.06%
activity change, negative = inhibition [2]: -7.92%
activity change, negative = inhibition [3]: -0.309%
activity change, negative = inhibition [4]: -1.61%
activity change, negative = inhibition [5]: -1.3%

CN(Cc1ccc(-c2ccccc2)cc1)C(=O)Cc1ccccn1
activity change, negative = inhibition [1]: -9.49%
activity change, negative = inhibition [2]: -2.48%
activity change, negative = inhibition [3]: -6.36%
activity change, negative = inhibition [4]: -17.2%
activity change, negative = inhibition [5]: -6.55%

CCCCNc1nc2c(S(=O)(=O)c3ccc(C(C)C)cc3)nnn2c2ccccc12
activity change, negative = inhibition [1]: -0.643%
activity change, negative = inhibition [2]: -0.259%
activity change, negative = inhibition [3]: -3.92%
activity change, negative = inhibition [4]: -15.6%
activity change, negative = inhibition [5]: -4.36%

O=C(Nc1ccc(N(Cc2ccsc2)C(=O)Cn2nnc3ccccc32)cc1)C1CC1
activity change, negative = inhibition [1]: 0.096%
activity change, negative = inhibition [2]: 1.57%
activity change, negative = inhibition [3]: 3%
activity change, negative = inhibition [4]: -17.9%
activity change, negative = inhibition [5]: -5.85%

O=C1CN(Cc2ccccc2Cl)S(=O)(=O)c2ccccc2N1Cc1cccc(F)c1
activity change, negative = inhibition [1]: 15.1%
activity change, negative = inhibition [2]: 0%
activity change, negative = inhibition [3]: 8.48%
activity change, negative = inhibition [4]: 1.28%
activity change, negative = inhibition [5]: 4.43%

Cc1cccc(-c2noc([C@@H]3Cc4nc[nH]c4CN3C(=O)c3ccc(-c4ccccc4)cc3)n2)c1
activity change, negative = inhibition [1]: -3.79%
activity change, negative = inhibition [2]: -2.57%
activity change, negative = inhibition [3]: -1.1%
activity change, negative = inhibition [4]: -3.98%
activity change, negative = inhibition [5]: -15.8%

Cc1ncc2c(c1CNC(=O)CC(C)c1ccccc1)CCNC2 (stereo not given)
activity change, negative = inhibition [1]: -6.14%
activity change, negative = inhibition [2]: -8.97%
activity change, negative = inhibition [3]: -5.55%
activity change, negative = inhibition [4]: -15%
activity change, negative = inhibition [5]: 5.16%

CN(C)c1nc(N(C)C)nc(N(C)C)n1
activity change, negative = inhibition [1]: 4.01%
activity change, negative = inhibition [2]: -6.23%
activity change, negative = inhibition [3]: 7.86%
activity change, negative = inhibition [4]: -9.08%
activity change, negative = inhibition [5]: -5.18%

CC(C)CCNC(=O)C1(C)Cn2c(ccc2-c2ccco2)C(=O)N1Cc1ccc2c(c1)OCO2 (stereo not given)
activity change, negative = inhibition [1]: -3.02%
activity change, negative = inhibition [2]: 0%
activity change, negative = inhibition [3]: 3.84%
activity change, negative = inhibition [4]: 1.8%
activity change, negative = inhibition [5]: -1.79%

CC(C)NC(=O)c1ccc2c(=O)n(C(C)C)c3nn(CC(=O)Nc4ccccc4Cl)c(=O)n3c2c1
activity change, negative = inhibition [1]: 5.15%
activity change, negative = inhibition [2]: 2.62%
activity change, negative = inhibition [3]: 9.68%
activity change, negative = inhibition [4]: -0.603%
activity change, negative = inhibition [5]: 7.95%

COc1cc2c(cc1-c1c(C)noc1C)ncc1[nH]c(=O)n([C@H](C)c3ccccn3)c12
activity change, negative = inhibition [1]: -89.4% and -63.9%
activity change, negative = inhibition [2]: -6.04% and 2.33%
activity change, negative = inhibition [3]: -12.5% and -9.83%
activity change, negative = inhibition [4]: -46.8% and -43.9% and -43.3%
activity change, negative = inhibition [5]: -12.6% and 17.8% and -3.62%

Cn1c2c(c3ccccc31)C(C(=O)NC1CCCCCC1)N(Cc1ccc(F)cc1)C(=O)CS2 (stereo not given)
activity change, negative = inhibition [1]: 2.64%
activity change, negative = inhibition [2]: 2.65%
activity change, negative = inhibition [3]: 0.164%
activity change, negative = inhibition [4]: -10.1%
activity change, negative = inhibition [5]: -4.54%

COc1nccc(-c2c(-c3ccc(F)cc3)ncn2C2CCNCC2)n1
activity change, negative = inhibition [1]: 2.12%
activity change, negative = inhibition [2]: 9.97%
activity change, negative = inhibition [3]: 0.312%
activity change, negative = inhibition [4]: -13.2%
activity change, negative = inhibition [5]: 2.08%

Cc1[nH]c(=O)[nH]c(=O)c1CC(=O)N[C@@H]1COCC[C@@H]1OCc1ccccc1
activity change, negative = inhibition [1]: -7.08%
activity change, negative = inhibition [2]: -12.6%
activity change, negative = inhibition [3]: -4.84%
activity change, negative = inhibition [4]: -17.6%
activity change, negative = inhibition [5]: -14.8%
